Whole data set: some 110,000 compounds, median “z-score” near -0.1, cut for the highest 2% near 2. The list shows a part of the results. Calls of active or inactive are those of the source.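 Rule for the calls: active = z-score in the third read window above 3 or below -3; inactive = the rest.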

The experiment addresses Metabotropic glutamate receptor 8 (Rattus norvegicus) (UniProt P70579). Put plainly: rat mGluR8 modulators via GIRK flux, primary screen, cell-based, thallium flux, HTS (AID 488969). The note with it: HEK293 rat mGluR8, GIRK (G protein-gated inwardly rectifying potassium channel) thallium flux, FluoZin2; at 10 µM; stronger effect = higher value; submaximal glutamate (EC20) added with thallium.
Chain of UniProt P70579 (P70579 whole entry, looked up): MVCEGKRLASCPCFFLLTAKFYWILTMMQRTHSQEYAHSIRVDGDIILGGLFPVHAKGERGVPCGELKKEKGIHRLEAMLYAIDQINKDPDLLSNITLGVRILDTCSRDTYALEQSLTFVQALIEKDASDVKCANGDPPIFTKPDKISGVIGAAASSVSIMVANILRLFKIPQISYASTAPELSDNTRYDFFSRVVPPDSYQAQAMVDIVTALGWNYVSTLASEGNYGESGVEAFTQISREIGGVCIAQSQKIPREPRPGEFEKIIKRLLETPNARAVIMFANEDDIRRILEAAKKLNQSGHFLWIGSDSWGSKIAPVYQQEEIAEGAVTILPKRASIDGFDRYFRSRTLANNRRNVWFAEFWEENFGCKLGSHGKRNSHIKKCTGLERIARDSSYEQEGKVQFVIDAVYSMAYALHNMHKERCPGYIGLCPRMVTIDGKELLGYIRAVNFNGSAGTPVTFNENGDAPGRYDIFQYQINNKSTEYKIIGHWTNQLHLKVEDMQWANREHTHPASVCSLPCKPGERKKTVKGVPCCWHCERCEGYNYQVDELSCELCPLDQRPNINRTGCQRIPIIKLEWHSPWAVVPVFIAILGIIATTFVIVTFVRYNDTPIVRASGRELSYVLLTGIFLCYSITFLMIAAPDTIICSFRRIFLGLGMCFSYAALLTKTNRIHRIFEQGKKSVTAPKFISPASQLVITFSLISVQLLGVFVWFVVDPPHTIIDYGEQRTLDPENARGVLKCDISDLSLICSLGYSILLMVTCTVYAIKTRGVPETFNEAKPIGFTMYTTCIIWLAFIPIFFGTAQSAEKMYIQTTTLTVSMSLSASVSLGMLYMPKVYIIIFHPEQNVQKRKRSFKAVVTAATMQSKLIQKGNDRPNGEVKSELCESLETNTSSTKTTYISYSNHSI
As for `S=C(NCC1CCCO1)Nc1ccc(Cl)cc1` (stereo not drawn), the z-score is 0.0149.

On to `COc1ccc(NC(=O)C(CCS(C)(=O)=O)N2C(=O)c3ccccc3C2=O)cc1` (stereo not drawn), for which the z-score was -0.208. The result for `CN1C(=O)[C@@H]2[C@@H]3C[C@@H]([C@H]4ON=C(c5ccc(Cl)cc5)[C@@H]34)[C@@H]2C1=O` reads 0.518; that for `COc1cccc(C2OC(=O)c3ccccc3N2C(C)=O)c1OC(C)=O` (stereo not drawn), 0.116; that for `CC1CC(C)CN(C(=O)CSc2nnc(-c3ccc(Cl)cc3)o2)C1` (stereo not drawn), -0.176.

Turning to `Cc1cccc(NC2=NC(=S)N(c3ccc(C(=O)O)cc3)C23CCCCC3)c1`, the z-score was -0.194. The molecule `CCC(C)C1NC(=S)N(C2CCCCC2)C1=O` (stereo not drawn) had a z-score of 0.382. For the molecule `COC(=O)c1cc2ccsc2n1CC(=O)Nc1cc(Cl)ccc1OC`, the z-score turned out to be 0.428. The result for `CN(CC(=O)Nc1sccc1C#N)C1CCCCC1` reads 0.0221; that for `CC1CCCN(C(=O)C2CCN(S(=O)(=O)c3cccc4cccnc34)CC2)C1` (stereo not drawn), -0.63; that for `CCOC(=O)c1c(C)nc2sc3c(=O)n(-c4ccc(C(C)=O)cc4)nnc3c2c1-c1ccc(Cl)cc1`, -0.128.

In the case of `CCCCOC(=O)/C=C/c1ccc(OC(=O)OC)c(OC(=O)OC)c1`, the z-score is -0.231. The result for `Cc1cc(C(=O)C(=O)N(C)C)c(C)n1-c1ccc([N+](=O)[O-])cc1` reads 0.277; that for `CCOC(=O)N1CCN(c2c(N3CCOCC3)c(=O)c2=O)CC1`, -1.39. `COCCCNC(=O)c1ccccc1SC` came in with a z-score of 0.292. To `Cc1cc([N+](=O)[O-])nn1CC(=O)NCc1cccs1` belongs -0.13; to `O=S(=O)(c1ccc(NC(=S)NCc2ccco2)cc1)N1CCCC1`, -0.365.

As for `C/C(=N/N=C1/NC(=O)CC(C(=O)Nc2ccccc2)S1)c1cccs1` (stereo not drawn), the z-score was -0.222. `COc1cc(/C=C(/C#N)c2nc3ccccc3c(=O)[nH]2)ccc1O` had a z-score of -0.29. In the case of `CCOCCCn1c(=N)c(C(=O)Nc2cc(C)on2)cc2c(=O)n3ccccc3nc21`, the z-score was -0.167. Take `COCCn1c(COc2cccc(OC)c2)nnc1SCC(=O)N1CCOCC1`: the z-score was 1.06. To `C=CCOc1c(CNc2ccc(S(N)(=O)=O)cc2)cccc1OC` belongs -0.459; to `O=C(CSc1nc2ccccc2o1)Nc1nc(-c2ccccc2)cs1`, -0.203; to `COc1ccc(S(=O)(=O)Nc2ccccc2SC)cc1C`, 0.148. To `Cc1ccccc1CS(=O)(=O)CCC(=O)NCCCN1CCN(c2ccccc2F)CC1` belongs -0.421; to `S=C(Nc1ccc(Cl)cc1)c1nc2ccccc2s1`, 0.236. To `COc1ccc(/C=C2/SC(=S)N(CCC(=O)O)C2=O)cc1` belongs -0.0713; to `O=C(N/N=C/c1c(O)ccc2ccccc12)c1[nH]ncc1Br`, 0.0199; to `O=C1CC(c2ccco2)CC(O)=C1C=NCC1NCCc2ccccc21` (stereo not drawn), -0.333. As for `Cc1nn(Cc2c(F)c(F)c(F)c(F)c2F)c(C)c1NC(=O)c1nn(C)cc1[N+](=O)[O-]`, the z-score is -0.0787.

In turn, `Cc1ccc2nc(C)c(C(=O)N/N=C/c3ccco3)cc2c1` came in with a z-score of -0.189. To `O=C(CCC(=O)OCCCC(F)(F)C(F)(F)F)NC1CCCCC1` belongs -0.0277; to `C=CCN(CC=C)CCOc1cccc2ccccc12`, -0.0629; to `CCCCOC(=O)c1ccc(NC(=S)NC(=O)c2c(Br)c(C)nn2C)cc1`, active: 4.24. To `Cc1nn(-c2ccccc2)c(N2CCCC2)c1/C=N/Nc1ccc(S(N)(=O)=O)cc1[N+](=O)[O-]` belongs -0.414; to `Cc1ccc(C(=O)Oc2coc(CSc3nnc(NC(=O)c4cccs4)s3)cc2=O)cc1`, -0.193. For `CCOC(=O)N1CCN(C(=O)CCCn2nc(C)c3sc4ccccc4c3c2=O)CC1`, the z-score was -0.492. The result for `O=C(c1ccc(S(=O)(=O)N2CCOCC2)cc1)N1CCc2ccccc2C1` reads 0.0377; that for `COc1ccc(C(=O)NCCn2cc(SCC(=O)N3CCOCC3)c3ccccc32)cc1`, 0.0395.

`Cc1ccc(S(=O)(=O)N[C@H](C(=O)N2CCC(C(=O)N3CCC[C@H]3C(=O)O)CC2)C(C)C)cc1` displayed a z-score of 0.715. The result for `Cc1cc(NC(=O)CSc2nnc(-c3c[nH]c4ccccc34)n2-c2ccc(Cl)cc2)no1` reads -0.301; that for `CCOc1ccc(S(=O)(=O)N(C)CCO)cc1-c1nc2c(C(C)(C)C)nn(C)c2c(=O)[nH]1`, -1.09. `O=C(Cn1cc(C(F)(F)F)ccc1=O)N/N=C/c1cccc(Cl)c1Cl` gave a z-score of -0.181. The molecule `Cn1c(=O)c2c(nc(CN3CCN(C(=O)c4ccco4)CC3)n2Cc2ccccc2F)n(C)c1=O` displayed a z-score of -0.521.

Consider `COc1ccc(NC2=Nc3cccc4cccc2c34)cc1OC`, for which the z-score is active: 4.9. The result for `CC(=O)Nc1nc(C)c(Oc2ccccc2)c(=O)[nH]1` reads 0.0607; that for `O=C(CSc1nc2scc(-c3ccco3)c2c(=O)n1-c1ccccc1)N1CCOCC1`, 0.42. To `Nc1nc(N2CCN(C/C=C/c3ccccc3)CC2)nc2ccccc12` belongs 0.356; to `CCCCCOC(=O)CSc1n[nH]c(=O)[nH]c1=O`, -0.193; to `Cc1ccc(Sc2c(C)nn(C(=O)C3CC3)c2C)cc1`, -0.366. The molecule `CCCCOc1ccc(S(=O)(=O)NCc2csc(C)n2)cc1` gave a z-score of -1.17. For `O=C(NNC(=O)C1CCCO1)c1ccc(F)cc1` (stereo not drawn), the z-score is -0.154.

Turning to `Cc1ccc(C)c(Nc2ncnc3nc[nH]c23)c1`, the z-score was -0.224.

`COc1cc2c(cc1OC)C(C(=O)NCc1ccco1)C1c3ccccc3CCN1C2=O` (stereo not drawn) yielded a z-score of 0.0658.

Regarding `CC1CCC2C(=O)N(c3ccc(NC4CCCCC4)c([N+](=O)[O-])c3)C(=O)C2C1` (stereo not drawn), the z-score was 0.115. For `CCC(=O)NCCc1nc2ccccc2[nH]1`, the z-score is -0.565. To `CC(=O)Nc1cccc(C(=O)/C=C/c2ccc(C)cc2)c1` belongs 0.501. The result for `Cc1ccc(C=Nc2ccccc2C(N)=O)s1` reads -0.296; that for `O=C(Nc1nccs1)c1cc(-c2ccccc2)nn1-c1ccccc1`, 1.18. The result for `CSCCC(NC(=O)c1ccc(Cl)cc1)C(=O)OCC(=O)Nc1cc(Cl)ccc1C#N` (stereo not drawn) reads -0.119; that for `Cc1cccc(N2C(N)=C(C#N)C(C#N)(C#N)C2c2ccccc2)c1` (stereo not drawn), -0.101; that for `Cc1cc(NC(=O)CCCC(=O)O)nc(C)n1`, -0.119. As for `COC(C(=O)Nc1ccc(S(=O)(=O)Nc2ccc(C)c(C)c2)cc1)c1ccccc1` (stereo not drawn), the z-score is -0.117. In turn, `CC(=O)N1c2ccccc2C(C)(c2ccccc2)CC1(C)C` (stereo not drawn) displayed a z-score of -0.236.

For `COc1ccc(NC(=O)CC#N)cc1OC`, the z-score is -0.0767.

The molecule `CNC(=O)Nc1cc(C(C)(C)C)no1` registered a z-score of 0.117.

Turning to `CCOc1ccc(-c2nnc(SCC(=O)N(CC)CC)n2N)cc1`, the z-score is 0.044.

For `Cc1ccc(C2CC2C(=O)NN)cc1` (stereo not drawn), the z-score is -0.033.

`CC1(C(=O)O)CCC(C(=O)Nc2ccc3ccccc3c2)C1(C)C` (stereo not drawn) returned a z-score of -0.174. Take `COc1ccccc1NC(=O)Cn1c(=O)sc2ccccc21`: the z-score is -0.0843.

Take `Cc1cc(C)c(C#N)c(Oc2ccccc2)n1`: the z-score is -1.02. On to `COc1ccc2c(Cl)c(C(=O)NCCCn3ccnc3)sc2c1`, for which the z-score was -0.0695.

Regarding `COc1ccc(CCNC(=O)CSc2nnc(-c3ccc(F)cc3)c3ccccc23)cc1OC`, the z-score is active: -3.05. The result for `O=C(COC(=O)Cc1cccc(C(F)(F)F)c1)Nc1cccc2ccccc12` reads 0.00711.

In turn, `Cc1ccc(NC(=O)C2CC(=O)NC(Nc3cccc(C)c3)=N2)cc1` (stereo not drawn) came in with a z-score of 0.0251. The result for `Cc1cc(N2CC34C=CC(O3)C(C(=O)O)C4C2=O)no1` (stereo not drawn) reads -0.0216; that for `O=C(O)CCCC(=O)Nc1ccc(Br)cc1C(=O)O`, 0.073. `COc1ccc(OC)c(Nc2ncnc3c2cnn3-c2ccccc2)c1`: the z-score was -0.143. `Cc1ccccc1NC1=C(Cl)C(=O)N(C2CCCCC2)C1=O` displayed a z-score of 0.129. `CCOC(=O)c1ccc(NC(=O)N2CCN(S(C)(=O)=O)CC2)cc1` yielded a z-score of 0.139. `CCCOC(=O)NC(CC)COC(=O)Nc1cc(C)ccc1C` (stereo not drawn): the z-score was -0.0367. For `Cc1ccc(NC(=O)/C(=C/c2cccc([N+](=O)[O-])c2)NC(=O)C2CCCCC2)cc1`, the z-score is -0.193. The result for `CCOc1cc(Br)c(C(=O)O)cc1OCC` reads -0.24; that for `Cc1[nH]c(=O)[nH]c(=O)c1NS(=O)(=O)c1ccc2c(c1)CCCC2`, -0.358; that for `Cc1ccc(-n2c(SCC(N)=O)nnc2-c2ccccn2)cc1C`, 0.0328. To `CCCOc1ccccc1-c1nc2c([nH]1)c(=O)[nH]c(=O)n2C` belongs -0.0733; to `CC(C)OP(=O)(OC(C)C)C(Nc1ccccn1)c1ccc(F)cc1` (stereo not drawn), -0.207. The result for `c1cncc(-c2cccnc2)c1` reads 0.277; that for `CC(C)NC(=O)Cn1cnc2c1c(=O)n(C)c(=O)n2C`, -0.161; that for `CC(C)=C1C2CCC1C1C(=O)N(c3nccs3)C(=O)C21` (stereo not drawn), -0.106. For `COc1ccc(S(=O)(=O)NCCC(=O)NCc2cccs2)cc1`, the z-score is -0.222. To `O=C(CCS(=O)(=O)c1ccc(Br)s1)NC1CCCCCC1` belongs 0.681.

Consider `CSc1n[nH]c(NCc2cccs2)n1`, for which the z-score is -0.124. For the molecule `O=C(Nc1cc(S(=O)(=O)N2CCOCC2)ccc1N1CCCC1)c1cnccn1`, the z-score was -0.108. The molecule `O=C(Nc1ccc2c(c1)Cc1ccccc1-2)c1ccncc1` returned a z-score of 0.177. The result for `COC(=O)[C@@H](NC(=O)NCc1ccc(F)cc1)C(C)C` reads -0.141; that for `CCCNC(=O)NC(=O)COc1c(F)c(F)cc(F)c1F`, 0.232. The result for `Cc1cnc(NC(=O)CSc2nnc(C)n2N)s1` reads -0.271; that for `COc1ccc(C=O)cc1CSc1nnc(COc2cccc3cccnc23)o1`, -0.687; that for `Oc1[nH]c2ccccc2c1/C=N/c1nccs1`, 2.09.

Regarding `NC(=O)CSc1nnnn1-c1cccc(Cl)c1`, the z-score was -0.301. To `CCCCC(CCC(=O)Nc1ccc(C(=O)OCC)cc1)C(=O)O` (stereo not drawn) belongs -0.529. On to `CC(C)Cc1ccc(C#N)c(SCC(N)=O)n1`, for which the z-score is -0.397.

In turn, `CCOc1ccc(CNC(=O)CCCOc2cc(=O)n(C)c3ccccc23)cc1` showed a z-score of 0.124. To `CCOC(=O)C1CCCN(c2c(NCCN3CCCCC3CC)c(=O)c2=O)C1` (stereo not drawn) belongs -0.0143; to `Cc1ccc(C(=O)c2cn[nH]c2-c2ccccc2O)cc1`, -0.0541.

For `CCC(=O)Nc1ccc(S(=O)(=O)N2CCc3ccccc3C2)cc1`, the z-score was -0.0809. For the molecule `O=C(c1cc(Cl)ccc1[N+](=O)[O-])n1cnc2ccccc21`, the z-score was -0.721. The result for `O=C(NCc1ccc2c(c1)OCO2)C1CCCN1C(=O)Nc1cccc(F)c1` (stereo not drawn) reads 0.725; that for `Cc1ccccc1OCc1nc2ccccc2c(=O)n1N`, -0.0405; that for `C=CCn1c(CCC(O)CCCCC)n[nH]c1=S` (stereo not drawn), 0.0214.

The molecule `CCc1cccc(CC)c1NC(=O)COC(=O)Cc1ccsc1` returned a z-score of -0.198. The molecule `OCC(O)CSc1nc(-c2ccccc2)nc2c1CCC2` (stereo not drawn) had a z-score of -0.347.
